From PubChem BioAssay AID1240 (Sanford-Burnham Center for Chemical Genomics, 2008) come the findings set out here.

About 800 (1.6%) of roughly 50,000 compounds showed an effect of 50% or more. Some of the results follow.

In this assay the target is Bcl-2-like protein 10 (Homo sapiens) (UniProt Q9HD36). Put plainly: Phenotype converters, Bcl-B/TR3 peptide binding displacement, primary biochemical FP (AID 1240).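 Also: 0% = Bcl-B with tracer peptide and DMSO and 100% = tracer peptide lacking Bcl-B.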 The note with it: GST-Bcl-B / FITC-TR3 peptide fluorescence polarization; stronger effect = higher value; compound at 3.75 mg/L. For orientation: In fluorescence polarisation assays a small probe gives low polarisation when free and higher when bound to something large.
Sequence of UniProt Q9HD36 (Q9HD36 whole entry, looked up): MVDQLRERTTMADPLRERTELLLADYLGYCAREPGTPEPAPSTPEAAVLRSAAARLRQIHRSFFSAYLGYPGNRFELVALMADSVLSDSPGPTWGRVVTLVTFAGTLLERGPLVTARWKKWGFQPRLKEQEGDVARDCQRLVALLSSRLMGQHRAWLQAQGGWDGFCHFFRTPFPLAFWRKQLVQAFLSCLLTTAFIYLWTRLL
For the molecule `CCOC(=O)c1c(CC(C)C)csc1NC(=O)C1CC1`, the displacement was -0.3%.
As for `COc1cc(NC(=O)c2cccc([N+](=O)[O-])c2)cc(OC)c1`, the displacement turned out to be 1.1%.
On to `O=C1NN(c2ccccc2)C(=O)/C1=C/c1ccccc1OCc1ccc(F)cc1`, for which the displacement was determined as 8.2%.
As for `CCSc1nc2ccccc2n1CC(=O)Nc1ccc(F)cc1`, the figure is 12.5%; as for `O=C(COc1ccc2ccc(=O)oc2c1)Nc1cccc2ccccc12`, 10.7%; as for `Cc1ccc(C(=O)Nc2ccccc2C(=O)NCCCC(=O)O)cc1`, -2.3%.
Consider `CCc1ccc(N2CC(C(=O)N/N=C/c3cccc([N+](=O)[O-])c3)CC2=O)cc1` (stereo unspecified), for which the displacement came out at 2.1%.
The figure for `Cc1cc(C)cc(-n2c(C)cc(/C=C3\NC(=S)NC3=O)c2C)c1` is 12.1%; for `COC(=O)COc1ccc(/C=C(/C#N)C(=O)Nc2cccc(Br)c2)cc1OC` it is -8.7%.
The figure for `Cc1cccc(NC(=O)CCC(=O)NCCO)c1` is -3.7%; for `O=C(Cc1cccs1)NNC(=O)c1cccc(Cl)c1` it is -0.3%; for `COc1cccc(OC)c1C(=O)Nc1ccccc1NC(C)=O` it is 3.8%.
On to `CC(C)(C)c1ccc(OCCOc2ccccc2C=C2C(=O)NC(=S)NC2=O)cc1`, for which the displacement was -5.2%.
As for `O=C(Nc1ccc(S(=O)(=O)Nc2ncccn2)cc1)c1ccccc1Br`, the figure is -14.8%; as for `Cc1nnc(N2C(=O)C3CCC(C)(C2=O)C3(C)C)s1` (stereo unspecified), -11.7%.
Take `O=C(C1=C(O)C(=O)N(c2nncs2)C1c1ccccc1F)c1cccs1` (stereo unspecified): the displacement was determined as 129%.
Regarding `COc1ccc(C(=O)NNC(=O)c2ccccc2O)cc1`, the displacement was -9.6%.
As for `CC(=O)Oc1ccc(-c2cccc(C(=O)Nc3ccccc3Cl)c2)cc1`, the figure is 12.6%; as for `COc1ccc(-c2cc(C(F)(F)F)n3nc(C(=O)NCc4ccco4)c(Cl)c3n2)cc1OC`, -5.3%; as for `CC(C)C(NC(=O)c1ccc(N(C)S(=O)(=O)c2ccccc2)cc1)C(C)C`, 11.6%.
The figure for `C=CCOc1ccc(CN2CCCCC2)cc1` is -4%.
For the molecule `COC(=O)c1cc(C(=O)NCCCN(C)C)cc([N+](=O)[O-])c1`, the displacement is -4.2%.
As for `FC(F)(F)c1cc(/C=C/c2ccccc2)no1`, the figure is 7.7%; as for `COc1ccc2c(c1OC)C(=O)OC2Nc1ccccc1[N+](=O)[O-]` (stereo unspecified), 7.8%.
As for `O=C(c1ccc([N+](=O)[O-])cc1Cl)N(Cc1ccccc1)c1ccccn1`, the figure is 16.8%; as for `COc1ccc(C(=O)c2coc3cc(Br)c(O)c(Br)c23)cc1`, -13%.
The figure for `Cc1ccc(NC(=O)CCC(=O)N2CC(=O)NC(=O)C2)cc1` is 0.1%; for `Cc1cccc(C(=O)NN=C2CCN(C)CC2)c1` it is -5.4%.
`CC1CCC2(CC1)OCC1(CCC3(COC4(CCC(C)CC4)OC3)C1=O)CO2` (stereo unspecified): the displacement amounted to 1.5%.
The figure for `CC(=O)N1c2ccccc2N(Cc2ccc(C)cc2C)C(=O)C1(C)C` is 10%; for `COc1ccc(Cl)cc1C(=O)Nc1ccc(O)c(-c2nc3ccccc3o2)c1` it is -22.2%.
As for `Cc1ccc2c(Cl)c(C(=O)Nc3ccc4c(c3)OCCO4)sc2c1`, the figure is 12.3%; as for `O=C(NCC1CCCO1)C(=O)Nc1ccc(Cl)c(C(F)(F)F)c1` (stereo unspecified), -6.4%; as for `Cc1ccc(C(=O)Nc2ncccc2Cl)cc1C`, -10.2%.
As for `CCc1ccc(N2NC(=O)/C(=C/c3ccc(-c4ccc(S(N)(=O)=O)cc4)o3)C2=O)cc1`, the figure is 3.4%; as for `COc1ccc(NC(=O)c2ccc(OC(C)=O)cc2)cc1O`, 13.6%.
As for `O=C(CN(Cc1ccccc1)S(=O)(=O)c1ccccc1)Nc1ccc(Br)cc1`, the displacement is 5.7%.
The figure for `Cc1ccc(C(=O)NCCCNc2ccc([N+](=O)[O-])cc2Cl)cc1` is 15.2%.
For `COc1ccc(C2/C(=C(\O)c3ccccc3)C(=O)C(=O)N2CCN(C)C)cc1OC` (stereo unspecified), the displacement is -14.8%.
The figure for `O=C1OC(c2ccccc2)=N/C1=C\c1c(Cl)cccc1Cl` is 8.2%; for `COc1cc(CN2CCN(S(=O)(=O)c3ccc(Cl)cc3)CC2)cc(OC)c1O` it is -9.1%.
As for `O=S(=O)(N=Nc1c(O)[nH]c2ccc(Br)cc12)c1ccc(Cl)cc1`, the figure is 4%.
Take `C/C(=C\c1ccc(Cl)cc1)C(=O)c1c(C)cc(C)[nH]c1=O`: the displacement was -1.3%.
`CC(NS(=O)(=O)c1ccccc1)C1COc2ccccc2O1` (stereo unspecified): the displacement is -9.1%.
As for `Cc1ccc(OCC(=O)Nc2ccc(C)cc2Br)c(C)c1`, the figure is 2.5%; as for `CCN(CC)CCNC(=O)C12CC3CC(CC(C3)C1)C2`, -7.3%; as for `O=C(CCN1C(=O)c2cccc([N+](=O)[O-])c2C1=O)Nc1nccs1`, -6.5%.
Turning to `Cc1cccc(C)c1NC(=O)CSCC(=O)Nc1ccccc1`, the displacement is 9.9%.
The figure for `Cc1cccc(N2C(=O)NC(=O)/C(=C/c3cc4c(cc3Br)OCO4)C2=O)c1` is -0.9%; for `Cn1c(/C=C/c2cn(Cc3ccccc3)c3ccccc23)nc2ccccc2c1=O` it is 17.3%.
Regarding `COc1ccc(C(=O)Nc2cccc3ccccc23)cc1Br`, the displacement came to 3.3%.
The figure for `COc1ccc2ccccc2c1/C=N/c1oc(C)c(C)c1C#N` is 6.5%; for `COc1ccccc1Nc1nc(-c2ccc(C)cc2)cs1` it is 9.4%.
As for `CCOC(=O)N1N=C(C)CC1(O)c1ccccc1` (stereo unspecified), the figure is -0.7%; as for `O=C(NCc1ccc2c(c1)OCO2)c1ccc(S(=O)(=O)N2CCCCCC2)cc1`, 0.1%; as for `O=C(COc1ccc2ccccc2c1)Nc1cccc(Cl)c1Cl`, -7.3%.
Take `COC(=O)c1c(-c2ccccc2Cl)csc1NC(=O)/C=C/C(=O)O`: the displacement was -12.6%.
The figure for `COc1ccc(N(CC(=O)Nc2ccc(Br)cc2)S(=O)(=O)c2ccc(OC)c(OC)c2)cc1` is 9.4%; for `O=C(CSC(=S)N1CCSCC1)c1ccc([N+](=O)[O-])cc1` it is -9.3%.
As for `O=C(CC1c2ccccc2Oc2ccccc21)Nc1ccc(Cc2ccncc2)cc1`, the figure is -7.7%; as for `CC1(C)CC(NC(=O)c2ccccc2Br)CC(C)(C)N1`, 2.2%.
As for `Cc1ccc(N(CC(=O)O)S(=O)(=O)c2ccccc2)cc1Cl`, the figure is 15%; as for `COC(=O)C1=C(C)NC(=S)NC1c1ccc(OCC(=O)N2CCOCC2)c(OC)c1` (stereo unspecified), 36.8%; as for `Cc1cc(C)cc(N2C(=O)NC(=O)/C(=C\c3ccc(O)c(Br)c3)C2=O)c1`, 12.3%.
Regarding `Cc1ccnc(NS(=O)(=O)c2ccc(F)cc2)c1`, the displacement amounted to 0.4%.
As for `CCN(CC)c1ccc(NC(=O)c2cccc(Cl)c2Cl)cc1`, the figure is 10.7%; as for `COc1ccc(/C(N)=N/OC(=O)c2cccc([N+](=O)[O-])c2C)cc1OC`, 11.4%.
As for `N#CC1CC(c2ccccc2)=NN1c1ccccc1` (stereo unspecified), the figure is 11.4%; as for `Cc1nc2ccc(Cl)cc2c(-c2ccccc2)c1C(=O)O`, -1.4%; as for `N#Cc1c(N)nc2c(c1-c1ccc(Br)s1)CCCCCC2`, -2.3%.
As for `CC(=O)CCc1oc2ccccc2c1-c1ccccc1`, the figure is -1.1%; as for `O=C(Cc1ccccc1)Nc1ccc(-c2ccccc2)cc1[N+](=O)[O-]`, -5.9%; as for `Nc1nonc1-c1nc2ccccc2n1Cc1ccc(Cl)cc1`, -3.4%.
Turning to `O=[N+]([O-])c1ccc(-c2cn3c(n2)sc2ccccc23)cc1`, the displacement stood at 7.6%.
For `Fc1ccc(-c2noc(-c3ccc(Cl)cc3)n2)cc1`, the displacement is -6.4%.
As for `CC(=O)C1=C(O)C(=O)N(CCN(C)C)C1c1cccc([N+](=O)[O-])c1` (stereo unspecified), the figure is -3.5%; as for `CCC(Oc1ccccc1)C(=O)Nc1ccncc1` (stereo unspecified), -10.7%; as for `COc1ccc(N(CC(=O)Nc2ccc(Oc3ccccc3)cc2)S(C)(=O)=O)c(OC)c1`, 10.4%.
The figure for `COc1ccc(N(C(=O)Nc2ccccc2[N+](=O)[O-])C(C)C2CC2)cc1` (stereo unspecified) is 5.9%; for `CN1CCN(C(=O)CCCN2C(=O)/C(=C/c3cccs3)SC2=S)CC1` it is 2.9%; for `CC1=C(C(N)=O)C(C2CCCCC2)C(C#N)=C(N)O1` (stereo unspecified) it is -11.7%.
As for `COCCCN1C(=O)c2cccc3cccc(c23)C1=O`, the displacement was -5.5%.
In the case of `O=C(O)c1ccc(CNC(=O)C2CCCCC2C(=O)O)cc1` (stereo unspecified), the displacement was -5.1%.
For `COc1ccccc1/C=C1/SC(=O)N(CNc2cccc(Cl)c2)C1=O`, the displacement was 9.1%.
As for `COc1ccccc1CNC(=O)c1ccc(Cl)c(Cl)c1`, the displacement is 18.3%.
As for `CC1CN(C(=O)c2cccs2)CC(C)O1` (stereo unspecified), the figure is 3.3%; as for `CC1=C(C)CC(C(=O)c2ccc(Br)cc2)C(C(=O)O)C1` (stereo unspecified), -3%; as for `O=C1CC(Nc2ccc(F)cc2)C(=O)N1c1ccc(N2CCOCC2)cc1` (stereo unspecified), 11.7%.
For the molecule `Cc1ccc2oc(C(F)F)cc(=O)c2c1`, the displacement worked out at 16.8%.
The figure for `NC(=O)c1c(NC(=O)c2cc3cc(Br)ccc3oc2=O)sc2c1CCCC2` is -11.9%; for `CC(C(=O)O)N1C(=O)/C(=C/c2ccccc2)SC1=S` (stereo unspecified) it is 2.6%; for `c1coc(CNc2ncnc3c2oc2ccccc23)c1` it is 4%.
Regarding `Cc1ccc(C)c(NC(=O)CN(c2ccc(F)cc2)S(=O)(=O)c2ccccc2)c1`, the displacement was -1.7%.
As for `CC(=O)c1cccc(NC(=O)COc2cc(C)ccc2C(C)(C)C)c1`, the displacement is -10.4%.
Turning to `C=CCn1c2ccccc2n2c(C(=O)OCC)c(C)nc12`, the displacement is -6.3%.
Turning to `CCN(CC)c1ccc(/C=C2/SC(=S)N(Cc3ccccc3)C2=O)c(O)c1`, the displacement was -98.2%.
As for `CC(=O)Nc1ccc(NS(=O)(=O)c2cccc3c2C(=O)c2ccccc2C3=O)cc1`, the figure is -4.4%; as for `Clc1ccc(-c2ccc(/C=C\c3nc4ccccc4o3)o2)cc1`, 95.3%; as for `Oc1c(/C=C2\C=Nc3ccccc32)sc(=S)n1-c1ccc(Cl)cc1`, 6.2%.
Take `COC(=O)C1C(O)=C(C=NCc2ccccc2)C(=O)CC1(C)C` (stereo unspecified): the displacement came out at 3.2%.
As to `COC(=O)c1ccc(NC(=O)C2CC(=O)N(c3ccc(C)cc3)C2)cc1` (stereo unspecified), the displacement worked out at 0.3%.
In the case of `COc1ccc(OC)c(NC(=O)COc2ccccc2C)c1`, the displacement came to 17.1%.
As for `CCOc1cccc(N2C(=O)CC(N3CCC(C(N)=O)(N4CCCCC4)CC3)C2=O)c1` (stereo unspecified), the displacement is -3.8%.
As for `O=c1c2ccccc2nc(/C=C/c2cccc(Br)c2)n1Cc1ccccc1`, the figure is 12.3%; as for `COc1cc([N+](=O)[O-])ccc1-c1ccc(/C=C2\C(=O)NC(=O)N(c3ccc(Cl)cc3)C2=O)o1`, 14%.
As for `Cc1ccc([N+](=O)[O-])cc1NC(=O)CC1Sc2ccccc2NC1=O` (stereo unspecified), the figure is 3.4%.
As for `O=C(COc1ccccc1[N+](=O)[O-])Nc1ccc2oc(-c3cccc(Br)c3)nc2c1`, the figure is 18.3%; as for `CCCCNCCCCOc1cc(C)c(Cl)c(C)c1`, 14.5%.
For the molecule `O=C1Nc2ccccc2/C1=N/N=C/c1cccc(Oc2ccccc2)c1`, the displacement turned out to be 0%.
The figure for `Cc1cccc(N=Cc2ccc(OC3CSC3)cc2)c1` is -5%; for `COC(=O)c1ccccc1NC(=O)CN(c1cccc([N+](=O)[O-])c1)S(=O)(=O)c1ccccc1` it is -11.4%.
